Laboratory results from a compilation of properties of binary mixtures (doi:10.1016/j.molliq.2019.112281).
The densities may have been worked out from excess volumes.

Assay: xn = mol fraction of the nth substance listed
Conditions: 100 kPa

CCCC[N+](CCCC)(CCCC)CCCC.[Cl-] + O
mass density [kg/m3]
Conditions	x1 = 0.039	x1 = 0.1	x1 = 0.15	x1 = 0.201	x1 = 0.22
293.2 K	988.3	971.1	961.4	955.7	954.3
298.2 K	984.9	967.6	958.1	–	951.1
303.2 K	981.5	964.1	954.8	949.3	947.9
308.2 K	–	960.6	–	946	944.7
313.2 K	974.6	957	948	–	941.5
318.2 K	971.1	953.5	944.6	939.5	938.2
323.2 K	–	949.9	941.2	936.2	935
328.2 K	963.9	946.3	937.8	933	–
333.2 K	960.3	942.7	934.4	–	928.5
338.2 K	956.6	939	930.9	–	925.3
343.2 K	952.9	935.4	–	923.1	922
348.2 K	949.2	–	924	919.8	918.7

CC[N+](CC)(CC)CC.[Cl-] + O
mass density [kg/m3]
Conditions	x1 = 0.051	x1 = 0.102	x1 = 0.151
293.2 K	1009.2	–	1033.1
298.2 K	–	1021.5	1030
303.2 K	1004.6	1018.5	–
308.2 K	1002.2	1015.5	1023.7
313.2 K	999.7	1012.5	–
318.2 K	997.1	1009.4	1017.3
323.2 K	994.4	1006.3	1014.1
328.2 K	991.6	1003.2	1010.8
333.2 K	988.7	–	1007.5
338.2 K	985.8	996.8	1004.2
343.2 K	982.8	993.5	1000.9
348.2 K	979.8	–	997.8

C[N+](C)(C)CCO.[Br-] + O
mass density [kg/m3]
Conditions	x1 = 0.05	x1 = 0.1	x1 = 0.149	x1 = 0.199	x1 = 0.248	x1 = 0.3
293.2 K	1114.9	1186.9	1231.2	1266.5	–	1314.2
298.2 K	1112.9	1184.5	–	1263.8	1290	1311.3
303.2 K	–	1182.1	–	1261.1	1287.1	1308.4
308.2 K	1108.6	–	–	1258.3	–	1305.5
313.2 K	1106.2	–	1220.7	1255.5	1281.5	1302.7
318.2 K	1103.8	1174.4	1218	1252.7	1278.7	1299.8
323.2 K	–	1171.7	1215.2	1249.9	1275.8	1296.9
328.2 K	1098.7	1169	–	1247.1	1273	1294
333.2 K	1096	–	1209.5	1244.2	1270.1	1291
338.2 K	1093.1	1163.4	1206.7	1241.3	–	–
343.2 K	–	1160.5	1203.8	1238.4	1264.3	1285.2
348.2 K	1087.4	–	1200.9	–	1261.4	1282.3
